# In all, about 43,000 compounds went through this assay and about 200 (0.47%) were called active. Roughly 12% stayed inconclusive and do not appear here. The call rests on the fitted dose curve; in most records, active means well fitted cell-killing curve with a large enough effect; inconclusive means small, poorly fitted or top-dose-only effect, or effect the other way; inactive means flat fitted curve, though single readings scatter. The list shows a part of the results.
# Assay: Cell viability qHTS assay in S16 Pmp22-F2sN cells; further: nearly all actives have a fitted effect of over 65% in size
# Details: S16 Pmp22-F2sN Schwann cells viability, CellTiter-Glo, 24 h; series mostly up to 57.5 µM; activity change, negative = cytotoxicity: at the top concentration
# How it was run: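 Viability was measured by CellTiter-Glo luminescence (15 min, room temperature). This followed 24 h at 37 °C of compound exposure (23 nL pin transfer) in S16 Pmp22-F2sN Schwann cells, 500-1,000 per well.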
# On the % scale 0 is the no-effect control and ±100 the full control effect.
row,SMILES,"activity change, negative = cytotoxicity"
1,COc1ccccc1CNC(=O)CN1C(=O)COc2ccc(S(=O)(=O)NC3CCCC3)cc21,inactive: -5.69%
2,Cc1cccc(-n2c(CNC(=O)c3cccc(F)c3)nnc2SCC(=O)Nc2ccccc2F)c1,inactive: 1.85%
3,CC1CCN(CC2CCN(C(=O)Nc3ccc(Br)cc3F)CC2)CC1,inactive: -5.43%
4,CC(=O)Nc1ccc(S(=O)(=O)NC2=NCN(CCO)CN2)cc1,inactive: 1.74%
5,COc1ccc(NC(=O)C2=C(C)Nc3ncnn3C2c2cccn2C)cc1 (configuration not stated),inactive: 17.4%
6,Fc1cccc(-c2nnn3c2nc(NC2CCCCC2)c2ccccc23)c1,inactive: 9.13%
7,Cc1ccc(S(=O)(=O)c2nnn(-c3ccc(F)c(Cl)c3)c2N)cc1,inactive: -13%
8,COC(=O)c1ccccc1NC(=O)C1=CC(c2cccs2)=NS(=O)(=O)N1C,inactive: 0.615%
9,COc1ccc(-n2nc3cc(C)c(NC(=O)c4ccc(-c5ccc(Cl)cc5)o4)cc3n2)cc1,inactive: 4.45%
10,Cc1cc(OCC(=O)Nc2cc(-c3nc4ncccc4o3)ccc2C)ccc1Cl,inactive: 8.97%
11,COc1ccc(OCc2ccc(-c3nc(C#N)c(NC(C)c4ccccc4)o3)o2)cc1 (configuration not stated),inactive: -1.58%
12,CCOc1ccc2nc(N3CCCC(C(=O)NCCc4ccc(OCC)c(OCC)c4)C3)sc2c1 (configuration not stated),inactive: 9.6%
13,Cc1cccc(C)c1Nc1c(-c2ccccn2)nc2c(C)cccn12,inactive: -13.6%
14,Cc1nn(CC(=O)Nc2ccc(OC(F)(F)F)cc2)c(=O)c2c(C)n(-c3ccc(Cl)cc3)nc12,inactive: -8.72%
15,COc1ccc(-c2csc3ncnc(Nc4cccc(OC)c4)c23)cc1,inactive: -0.457%
16,CSc1cccc(NC(=O)Nc2ccccc2OCc2cc(=O)n3cc(C)ccc3n2)c1,inactive: -0.0272%
17,CCOCCCNC(=O)c1ccc(-n2c(-c3ccccc3)cc3c2CCC(C)C3)cc1 (configuration not stated),inactive: -2.92%
18,O=C(Cc1cccs1)NC1CC(=O)N(c2ccc(F)cc2)C1 (configuration not stated),inactive: 11.2%
19,COc1ccc(NC(=O)CCNS(=O)(=O)c2ccc3c(c2)CCCC(=O)N3)cc1Cl,inactive: -7.52%
20,O=C(NCc1ccc(Cl)cc1)NCc1noc2ccccc12,inactive: -1.03%
21,CCc1ccc(S(=O)(=O)Nc2ccc3c(c2)n(C)c(=O)c(=O)n3C)cc1,inactive: 1.86%
22,Cc1ccc2c(c1)C(c1ccc(F)cc1)N(C(=O)c1ccc(S(=O)(=O)N3CCCCC3)cc1)CC(=O)N2 (configuration not stated),inactive: -26.4%
23,COc1ccc(C(=O)Nc2ccc3nc(SCC(=O)N4CCc5ccccc54)sc3c2)cc1,inactive: 21.4%
24,Cc1ccc(S(=O)(=O)n2nc(-c3ccc(Cl)cc3)nc2NCc2ccc(F)cc2)cc1,inactive: -0.396%
25,Cc1cc(C)c2c(CC(=O)Nc3ccc(S(=O)(=O)Nc4nc(C)cc(C)n4)cc3)coc2c1,inactive: -3.4%

row,SMILES,"activity change, negative = cytotoxicity"
1,COc1ccc(CNC(=O)c2cc3cc(OC)ccc3oc2=O)cc1,inactive: 1.87%
2,Cc1cc(S(=O)(=O)C(CNC(=O)c2ccc(F)c(F)c2)c2cccs2)ccc1F (configuration not stated),inactive: 4.85%
3,Cc1ccc(-n2ncc3c(Nc4cccc(C(=O)O)c4)ncnc32)cc1,inactive: -0.484%
4,Cc1cccc(/C=C/c2onc(C)c2S(=O)(=O)N2CCC(C(=O)N3CCCCC3)CC2)c1,inactive: -26.8%
5,CCCCn1cnc2cc(NCc3ccccc3Cl)ccc21,inactive: -24.8%
6,Cc1ccc(NC(=O)C(=O)NCC(c2cccnc2)N2CCN(Cc3ccccc3)CC2)cc1F (configuration not stated),inactive: -12.1%
7,CCCSCCCNC(=O)C1CCN(c2nc3ccccc3nc2C(F)(F)F)CC1,inactive: -29.8%
8,Cc1ccc(-c2ccc(=O)n(CC(=O)NCCc3ccccc3)n2)cc1,inactive: -0.972%
9,O=S(=O)(NCCc1csc2nc(-c3ccccc3)nn12)c1cc(F)ccc1F,inactive: -1.92%
10,COc1cccc(-c2nc(CS(=O)(=O)CC(=O)N3CCN(c4cc(C)ccc4C)CC3)c(C)o2)c1,inactive: -22.8%
11,CCc1ccc(C2CC(=O)c3c([nH]c(C(=O)OC4CCCC4)c3C)C2)cc1 (configuration not stated),inactive: -6.87%
12,CCOC(=O)c1ccc(CN(Cc2ccc(F)cc2)S(=O)(=O)c2ccc(F)c(C(=O)Nc3c(C)cccc3C)c2)cc1,inactive: -7.25%
13,COc1ccc(OC)c(C2CC(=O)Nc3c2c(=O)[nH]c2ncnn32)c1 (configuration not stated),inactive: 0.58%
14,COc1ccc(C2NC(=O)N(C)C3=C2C(=O)N(c2ccc(C(=O)O)cc2)C3)cc1 (configuration not stated),inactive: 8.03%
15,CCc1ccccc1NS(=O)(=O)c1ccc2[nH]cc(C(=O)N(CC)Cc3ccccc3)c(=O)c2c1,inactive: 0.299%
16,CCCc1ccc(OCC(=O)Nc2sc(C(=O)OCC)c(C)c2C(=O)OCC)cc1,inactive: 13.4%
17,Cc1ccc(C)c(N2CCN(S(=O)(=O)c3ccc4c(c3)C(C(C)C)C(=O)N4)CC2)c1 (configuration not stated),inactive: -5.93%
18,CSc1ncc(C(=O)NCc2ccccc2F)c(-c2ccccc2)n1,inactive: 1.38%
19,COc1ccc(S(=O)(=O)Nc2c(C)nc3nc[nH]n3c2=O)cc1,inactive: -0.409%
20,Cc1ccc2c(CNCc3ccc(C)o3)c(C(=O)O)n(Cc3ccccc3C)c2c1,inactive: -22.7%
21,CCc1ccc2occ(CC(=O)Nc3c(C(=O)c4ccc(C)cc4)oc4ccccc34)c2c1,inactive: 18.7%
22,Cc1ccccc1CSc1cn(CC(=O)N2CCCCC2)c2ccccc12,inactive: -10.1%
23,CCOC(=O)c1c(C)oc2nc(C)nc(NCC3CCN(Cc4ccc(C)cc4)CC3)c12,inactive: -3.8%
24,CC1Cc2ccccc2N1C(=O)CSc1nc2ccc(NC(=O)COc3ccccc3)cc2s1 (configuration not stated),inactive: 15.6%
25,CC1=C(C(=O)NCc2cccc(F)c2)C2(CCCCC2)OC1=O,inactive: -6.49%

row,SMILES,"activity change, negative = cytotoxicity"
1,CCOC(=O)C(C)Sc1ccc2nnc(CCNS(=O)(=O)c3ccc(C)cc3)n2n1 (configuration not stated),inactive: 8.91%
2,N#Cc1c(C(F)(F)F)cc(-c2cccs2)nc1SCc1ccc(F)cc1,inactive: 7.23%
3,CCOc1ccc(CCNC(=O)c2oc(=O)c3ccccc3c2-c2ccc(C)cc2)cc1OCC,inactive: 7.37%
4,Cc1ccc(NC(=O)CCS(=O)(=O)c2ccc(Br)s2)c(Br)c1,inactive: 10.1%
5,CC(C)(C)c1ccc(C(=O)NCCc2csc(-c3ccc(Cl)cc3)n2)cc1,inactive: 15.9%
6,Cc1nn(C)cc1CN(C)C(=O)c1cc(-c2ccccc2)nc2ccc(Br)cc12,inactive: 9.61%
7,O=C(Nc1cccc(C(F)(F)F)c1)c1cnn(-c2cccc(F)c2)c1C1CCNCC1,inactive: -26.1%
8,CCOC(=O)C1=C(CN2CCN(c3ccccc3OC)CC2)NC(=O)NC1c1ccccc1 (configuration not stated),inactive: -15.1%
9,Cc1cc(C)cc(NC(=O)N2CCC(CN3CCOCC3)CC2)c1,inactive: 13.8%
10,CC(C)NC(=O)N1[C@H](c2cccs2)[C@@H](C)C(=O)[C@@H](C)[C@@H]1c1cccs1,inactive: 5.55%
11,O=C(CN1CCCN(Cc2ccccc2F)S1(=O)=O)Nc1ccc(F)c(Cl)c1,inactive: -13.5%
12,COc1ccc(C(=O)Nc2ccc(N(C)Cc3ccccc3)c(C(=O)O)c2)cc1,inactive: -1.5%
13,CCOC(=O)Cn1c(=O)n(CC2CCCO2)c2nc(-c3ccccc3)nc(C(N)=O)c21 (configuration not stated),inactive: 10.1%
14,COC(=O)c1cc2oc(C)cc2n1CC(=O)Nc1ccc(C(C)C)cc1,inactive: -5.32%
15,CCc1cccc(C)c1NC(=O)Cn1nc(C)n2cccc2c1=O,inactive: -3.03%
16,CCCCNC(=O)c1ccc2c(=O)n(Cc3ccc(OC)cc3)c(=O)[nH]c2c1,inactive: 4.75%
17,Cc1ccc(CNCc2ccccc2Cl)s1,inactive: 3.44%
18,COCc1cc(C)nc2c1C(=O)NC(c1ccc(F)cc1)N2Cc1ccccc1 (configuration not stated),inactive: 7.07%
19,Cc1cccc(NC(=O)CCn2cnc3ccccc3c2=O)c1,inactive: -9.83%
20,CCCc1nnc(NC(=O)c2nc(SCC)ncc2Cl)s1,inactive: -0.458%
21,CCOC(=O)C1=C(CS(=O)(=O)c2ccc(F)c(C)c2)NC(=O)NC1c1ccccc1OC (configuration not stated),inactive: -0.638%
22,CCOC(=O)c1noc2ncn(CC(=O)Nc3cccc(C(F)(F)F)c3)c(=O)c12,inactive: 14%
23,CCc1nn(CC(=O)N2CCCCC2)c(=O)c2cc3occc3n12,inactive: 18.3%
24,CCOc1ccc(NC(=O)N2CCN(c3nnc(C)c4c(C)n(-c5ccccc5)nc34)CC2)cc1,inactive: 1.44%
25,CCOc1ccccc1NC(=O)CN(C)S(=O)(=O)c1ccc(C(=O)N2CCOCC2)s1,inactive: 4.03%

row,SMILES,"activity change, negative = cytotoxicity"
1,O=c1c(=O)n(-c2ccc(F)c(F)c2)ccn1Cc1ccc(F)cc1Cl,inactive: 2.57%
2,COc1ccc(C)cc1NC(=O)C1CCCN(c2ncnc3onc(C)c23)C1 (configuration not stated),inactive: -9.44%
3,Cc1ccc2c(=O)cc(C(=O)Nc3sc4c(c3C(=O)NCC3CCCO3)CCC4)oc2c1 (configuration not stated),inactive: -1.79%
4,CCC(C(=O)NCc1ccccc1OC)n1nc(C)n2c(cc3occc32)c1=O (configuration not stated),inactive: 1.01%
5,Cc1oc(-c2ccccc2Cl)nc1CS(=O)(=O)CC(=O)NCc1ccc(F)cc1,inactive: -1.46%
6,COc1ccc(-n2nc(C(=O)Nc3cc(C)ccn3)c3c4ccccc4n(C)c3c2=O)cc1,inactive: 24.8%
7,CCCCn1c(=O)n(-c2cc(OC)ccc2OC)c(=O)c2c3c(sc21)CN(C(C)=O)CC3,inactive: 19.5%
8,O=C(CC1N=C2c3ccccc3N=C(SCc3ccccc3Cl)N2C1=O)NCCc1ccccc1 (configuration not stated),inactive: -16.9%
9,CCOc1ccc(-n2nc3ccc(NC(=O)c4ccc(OC)c(Cl)c4)cc3n2)cc1,inactive: 5.01%
10,Cc1cc(Cl)ccc1NC(=O)Cc1ccc(NC(=O)N2CCCCc3ccccc32)cc1,inactive: -25.8%
11,COC(=O)c1cccc(NC2=NS(=O)(=O)c3ccccc32)c1,inactive: -2.51%
12,Cc1ccc(Nc2c(-c3ccc(C)s3)nc3ccccn23)cc1,inactive: 0.902%
13,CCc1nn2c(=O)cc(COC(=O)c3ccccc3)nc2s1,inactive: -3.33%
14,CCOc1ccccc1NC(=O)N(Cc1ccc(C)o1)C1CCN(C(C)=O)CC1,inactive: -6.35%
15,CCOC(=O)CNC(=O)N1CCCN(S(=O)(=O)c2ccc3c(ccn3CC)c2)CC1,inactive: 28.2%
16,Cc1ccc(-c2cc3ncc4c(n3n2)-c2cc(F)ccc2OC4)cc1,inactive: 2.21%
17,CCc1ccc(C(=O)c2cn(CC(=O)Nc3cccc(OC)c3)c3cc4c(cc3c2=O)OCO4)cc1,inactive: 3.19%
18,O=C(c1ccccc1Br)N(Cc1ccco1)Cc1ccco1,inactive: 6.08%
19,COc1ccc(C)cc1NC(=O)C1CCN(S(=O)(=O)c2cc(Br)cc3c2N(C(C)=O)CC3)CC1,inactive: 3.62%
20,COc1cccc(CNC(=O)Cc2c(C)c3c(cc(C)c4c(C)c(C)oc43)oc2=O)c1,inactive: 4.83%
21,O=S(=O)(c1ccc(Cl)cc1)c1nc(-c2cccs2)oc1SCc1ccc(F)cc1,inactive: 7.24%
22,Cn1nnc2c(NCc3ccc(Cl)cc3)ncnc21,inactive: -13.6%

# — PubChem BioAssay AID1508642 (National Center for Advancing Translational Sciences (NCATS), 2021)
